Data taken from PubChem BioAssay AID485344 (National Center for Advancing Translational Sciences (NCATS), 2010).
Hit rate of the full screen: of about 340,000 compounds, about 6,900 (2%) were called active. No stated cut-off is given here; in the data, active means inhibition above about 30%; inactive means below that, where a call was filed. The list shows a part of the results, in another mix than the full data. The source gives no active or inactive call for entries shown without one.

Molecular target: D(2) dopamine receptor (Homo sapiens) (UniProt P14416)
Assay: HTS Assay for Allosteric Antagonists of the Human D2 Dopamine Receptor: Primary Screen for Antagonists; further: 0% is about no effect
Settings: HEK293 TREx D2 cells, calcium flux, dopamine EC80; at 10 µM; stronger effect = higher value
Summary of the method: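 Measurement of antagonist activity uses fluorescent calcium dye in inducible HEK293 T-REx D2 cells: 10 s baseline, compound addition with 180 s read, EC80 dopamine addition with a further 180 s read.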

UniProt P14416, sequence (P14416 whole entry, looked up): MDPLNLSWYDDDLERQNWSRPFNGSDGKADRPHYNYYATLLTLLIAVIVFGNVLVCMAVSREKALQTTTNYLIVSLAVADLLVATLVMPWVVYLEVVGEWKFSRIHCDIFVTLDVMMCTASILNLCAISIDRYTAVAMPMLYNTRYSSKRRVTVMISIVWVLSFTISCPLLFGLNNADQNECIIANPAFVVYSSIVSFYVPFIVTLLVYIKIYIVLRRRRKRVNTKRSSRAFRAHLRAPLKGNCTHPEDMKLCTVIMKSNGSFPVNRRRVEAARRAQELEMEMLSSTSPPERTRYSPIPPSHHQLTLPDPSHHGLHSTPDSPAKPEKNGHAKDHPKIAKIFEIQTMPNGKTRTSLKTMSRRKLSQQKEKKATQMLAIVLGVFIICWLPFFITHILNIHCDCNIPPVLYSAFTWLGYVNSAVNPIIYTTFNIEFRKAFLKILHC

| SMILES | inhibition |
| --- | --- |
| Cc1cccc(OC(=O)c2snnc2C)c1C | 8.68% |
| CCCN(C(=O)c1cc2c(s1)-c1ccccc1OC2)c1ccc(C(C)C)cc1 | -10.5% |
| CCc1ccc(Nc2nc(-c3cc4cccc(OC)c4oc3=O)c(CC)s2)cc1 | 8.09% |
| CCOC(=O)c1ccc(NC(=O)Nc2cc3c(cc2N2CCCCC2)n(CC)c(=O)n3CC)cc1 | 0.695% |
| Cc1ccc(OCCCN(C)C)c(Br)c1 | active: 37.4% |
| CCOC(=O)Cc1ccc(NC(=O)Nc2nnc(N3CCCCC3C)s2)cc1 (stereo not drawn) | -0.38% |
| COC(=O)c1ccc(NC(=O)c2c(-c3ccccc3)c(-c3ccccc3)nn(C)c2=O)cc1 | 0.0357% |
| O=C(Nc1ccc2c(c1)CCCN2C(=O)c1cccs1)c1ccccc1C(F)(F)F | 12.2% |
| Cc1cc2c(cc1S(=O)(=O)CCC(=O)N1CCN(c3ccccc3)CC1)OCC(=O)N2 | 19.6% |
| CCS(=O)(=O)N1CC(=O)N(c2cc(Cl)ccc2C)C(C)(C(=O)NC2CCCCCC2)C1 (stereo not drawn) | -1.13% |
| CCCCCOC(=O)CSc1nc2sc3c(c2c(=O)n1Cc1ccccc1)CC(C)(CC)OC3 (stereo not drawn) | -6.82% |
| COc1ccc(CNC(=O)CCc2c(C)nn(-c3ccc(N4CCCC4)nn3)c2C)cc1 | 10.9% |
| COc1ccc(-c2nc3scc(CCNS(=O)(=O)c4cccs4)n3n2)cc1 | 21.7% |
| COc1cccc(C(=O)NC2=NC(c3ccccc3F)CC(=O)N2)c1 (stereo not drawn) | -12.3% |
| Cc1ccc(-n2c(=O)c3c4c(sc3n(CC(=O)C(C)(C)C)c2=O)CCCCC4)cc1C | -16.5% |
| COc1ccc(Br)cc1CNCc1c(C(=O)O)c(C)n(Cc2ccccc2C)c1C | -12.3% |
| Cc1nc2cccnc2n1-c1cccc(C(=O)NCc2cccc(Cl)c2)c1 | -1.46% |
| CCSc1ncc(Cl)c(C(=O)Nc2cc(C)ccc2C)n1 | 2.11% |
| COc1ccccc1C(=O)OCc1cc(=O)n2c(C)csc2n1 | 12.4% |
| CC(=O)c1c(C)n(-c2cccc(Cl)c2)c2ccc(OC(=O)c3ccccc3)cc12 | -0.303% |
| CCCOC(=O)c1c(-c2ccccc2)c(-c2ccccc2)nn(C)c1=O | -10% |

| SMILES | inhibition |
| --- | --- |
| Cc1cc(C)c(-c2n[nH]c3c2C(c2ccccc2F)N(CCO)C3=O)c(O)c1 (stereo not drawn) | -2.25% |
| COc1ccc(-c2[nH]c(-c3ccc(C)cc3)nc2SCC(=O)NCC2CCCO2)cc1 (stereo not drawn) | 21% |
| COc1ccccc1CNCC(O)Cn1c2ccccc2c2ccccc21 (stereo not drawn) | active: 42.3% |
| COc1cccc(NC(=O)CSc2nc(=O)[nH]c3c2CCCC3)c1 | -4.95% |
| CCOc1ccc(NC(=O)c2nn(C)c3c2COc2ccccc2-3)cc1 | 2.82% |
| CCOc1ccc(S(=O)(=O)Nc2cc3c(C(=O)OCc4ccccc4)c(C)oc3c3ccccc23)cc1 | 5.48% |
| COc1ccc2c(c1)c1c(c(=O)n(-c3cc(Cl)ccc3C)c(=O)n1Cc1ccc(F)cc1)n2C | 7.55% |
| Cc1c(Cl)cccc1-n1ncc(C(=O)NC2CCCC2)c1C1CCN(C(=O)OC(C)(C)C)CC1 | 10.8% |
| Cc1ccc(NC(=O)N2CCN3CCCCC3C2)cc1C (stereo not drawn) | -10% |
| CCc1cc(=O)n2[nH]c(C)c(-c3ccc(OC)cc3)c2n1 | active: 33.7% |
| Cn1c(=O)n(C)c2cc(CNCc3ccccc3Cl)ccc21 | -9.46% |
| COc1cccc(C(=O)NCc2cn3cccc(C)c3n2)c1 | -2.57% |
| O=C(c1ccc(Cl)cc1)n1nc(-c2ccccc2)nc1NCc1ccco1 | 8.62% |
| CCCn1c(=N)c(C(=O)NC(C)c2ccccc2)cc2c(=O)n3ccccc3nc21 (stereo not drawn) | 5.73% |
| Cc1ccc2scc(N3CCCC(C)C3)c(=O)c2c1 (stereo not drawn) | -4.4% |
| CCOc1cc2[nH]c(=O)n(CCC(=O)N3CCN(c4ccccc4)CC3)c(=O)c2cc1OCC | 15.6% |
| Cc1ccc(-n2nc3c(N4CCCC(C(=O)NCc5ccccc5C)C4)nnc(C)c3c2C)cc1 (stereo not drawn) | -17.5% |
| O=C(NCCCNCCCNC(=O)c1ccccn1)c1ccccn1 | active: 74.1% |
| CCOC(=O)c1cc2c(=O)n3ccccc3nc2n(CCCOC)c1=NC(=O)c1cc2ccccc2o1 | 7.01% |
| COc1ccc(NC(=O)Cn2c(=O)n(Cc3ccccc3Cl)c(=O)c3cc(OC)c(OC)cc32)cc1 | -10.8% |
| Cc1ccc(CCNC(=O)c2cc3ccccn3n2)cc1 | -1.71% |

| SMILES | inhibition |
| --- | --- |
| Cc1ccc(Cn2c(C)c3cnn(CC(=O)N4CCN(c5cc(C)ccc5C)CC4)c(=O)c3c2C)cc1 | 11.5% |
| COc1cccc(-n2c(C)nc3c(cnn3-c3ccc(C)c(C)c3)c2=O)c1 | 0.537% |
| O=c1oc2ccc(Cl)cc2cc1-c1nc(-c2cccs2)no1 | 3.98% |
| Cc1ccc(C(=O)CC2(O)C(=O)N(CCc3ccccc3)c3ccc(Br)cc32)cc1 (stereo not drawn) | -15.5% |
| CCc1cccc(NC(=O)CN2C(=O)COc3ccc(S(=O)(=O)N4CCC(C)CC4)cc32)c1 | -17.4% |
| O=C1CSc2ccc(C(=O)NCC(c3ccco3)N3CCCCC3)cc2N1 (stereo not drawn) | active: 35.8% |
| CCOCCCNC(=O)C(c1ccc(OC)cc1)N(Cc1cccs1)C(=O)CNC(C)=O (stereo not drawn) | -14.9% |
| O=C(CN1C(=O)CCSc2ccc(S(=O)(=O)N3CCCC3)cc21)Nc1ccccc1Cl | -2.23% |
| CCCC12CN3CC(CCC)(CN(C1)C3c1c[nH]c3ccc(OC)cc13)C2=O (stereo not drawn) | -6.42% |
| CCCOc1ccc(CC2C(=O)Nc3ccc(Br)cc32)cc1 (stereo not drawn) | 16.4% |
| Cc1nc(CC(=O)Nc2ccc(C(N)=O)cc2)cs1 | 1.8% |
| CCSC1=NC2(CCN(C(=O)NC3CCCCC3)CC2)N=C1c1ccc(OC)cc1 | 5.92% |
| CN(Cc1ccccc1)C(=O)c1ccccc1NC(=O)c1ccco1 | active: 31.2% |
| CC(C(=O)NCc1ccccc1)n1ccc2cc(S(=O)(=O)N3CCCC3)ccc21 (stereo not drawn) | -4.19% |
| COc1ccc(NC(=O)Cn2c(=O)n(Cc3ccco3)c(=O)c3sc4ccccc4c32)cc1Cl | 9.88% |
| CC(C)c1ccc(NC(=O)CN2C(=O)C3(SCC(=O)N3c3ccc(F)cc3)c3ccccc32)cc1 (stereo not drawn) | 0.718% |
| Cc1ccc(N2CCn3c2nc2c3c(=O)n(Cc3cccc(Cl)c3)c(=O)n2C)cc1C | 14.7% |
| O=C(Nc1ccc(Cl)cc1)c1ccc2c(c1)N(Cc1ccccc1)CCS2 | -2.23% |
| O=C(CSc1nc2ccccc2n1Cc1cccc(Cl)c1)N1CCN(c2ccc(F)cc2)CC1 | 8.83% |
| c1ccc(N2CCN(c3ncnc4c3nc3n4CCCC3)CC2)cc1 | 6.42% |
| COc1ccc(OC)c(CNC(=O)Cn2nc(C)c3c(C)n(-c4ccccc4)nc3c2=O)c1 | -12.7% |
